Results reported in paper PMC4336329 (PLoS ONE, 2015).
Screen size: about 310,000 compounds; about 2,200 (0.71%) showed an effect of 50% or more. The effect is printed as a negative number. The list shows a part of the results.

Target: human ether-à-go-go-related gene (hERG) potassium channel (human, UniProt Q12809)
Assay: primary screen, population patch clamp on CHO cells stably expressing hERG

Chain of human ether-à-go-go-related gene (hERG) potassium channel (Q12809 whole entry, looked up): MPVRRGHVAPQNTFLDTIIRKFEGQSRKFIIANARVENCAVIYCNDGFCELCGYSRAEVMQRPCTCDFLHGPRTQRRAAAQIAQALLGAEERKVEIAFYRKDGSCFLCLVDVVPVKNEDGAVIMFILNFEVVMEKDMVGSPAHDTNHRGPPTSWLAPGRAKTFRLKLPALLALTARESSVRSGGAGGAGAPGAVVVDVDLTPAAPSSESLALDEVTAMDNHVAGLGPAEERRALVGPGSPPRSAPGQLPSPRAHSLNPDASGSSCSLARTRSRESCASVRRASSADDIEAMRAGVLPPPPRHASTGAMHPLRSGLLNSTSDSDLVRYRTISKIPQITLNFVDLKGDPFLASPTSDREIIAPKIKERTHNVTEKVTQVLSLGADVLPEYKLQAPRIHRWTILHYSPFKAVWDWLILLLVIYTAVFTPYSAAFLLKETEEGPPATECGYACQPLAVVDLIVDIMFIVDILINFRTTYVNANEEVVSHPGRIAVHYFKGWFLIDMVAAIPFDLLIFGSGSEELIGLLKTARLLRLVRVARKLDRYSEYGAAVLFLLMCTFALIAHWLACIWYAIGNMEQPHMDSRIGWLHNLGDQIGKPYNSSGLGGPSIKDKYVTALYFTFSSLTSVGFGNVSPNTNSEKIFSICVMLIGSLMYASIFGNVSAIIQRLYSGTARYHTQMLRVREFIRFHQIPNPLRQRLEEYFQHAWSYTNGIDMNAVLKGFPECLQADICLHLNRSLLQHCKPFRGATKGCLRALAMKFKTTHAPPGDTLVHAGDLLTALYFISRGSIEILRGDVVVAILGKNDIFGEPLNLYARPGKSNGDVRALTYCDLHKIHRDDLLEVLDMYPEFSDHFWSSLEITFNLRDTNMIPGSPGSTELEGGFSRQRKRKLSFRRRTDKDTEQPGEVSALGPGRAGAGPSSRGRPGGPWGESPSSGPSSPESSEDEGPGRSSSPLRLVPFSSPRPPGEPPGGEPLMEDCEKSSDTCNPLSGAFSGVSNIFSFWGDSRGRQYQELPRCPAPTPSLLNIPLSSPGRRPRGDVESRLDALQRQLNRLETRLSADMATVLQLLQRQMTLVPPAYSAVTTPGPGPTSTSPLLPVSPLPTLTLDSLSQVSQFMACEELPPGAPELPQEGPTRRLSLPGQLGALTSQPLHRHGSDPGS

Compound	hERG current change (%, negative = inhibition) at 1uM [%]
CCN(CC)C(=O)Cn1cnc2sc(C)c(S(=O)(=O)N3CCC(C)CC3)c2c1=O	5.28
CC(C)(C)c1nc(SCC(=O)NC2CCCC2)c2ccccc2n1	11
Cc1cc(C)nc(NC(N)=NCCc2c[nH]c3ccccc23)n1	17
Cn1c(C(=O)O)c(CC(=O)N2CCC(Cc3ccccc3)CC2)c2ccccc21	-3.18
O=C(CN1CCN(C2CCCCC2)CC1)c1c[nH]c2ccccc12	-4.12
CCN(c1ccccc1)S(=O)(=O)c1ccc(OC)c(NC(=O)CNCCc2ccccc2)c1.O=C(O)C(=O)O	5.89
COc1ccc(OCc2cccc(C(=O)Nc3cc(C)on3)c2)cc1	-13.7
COc1ccc(C)cc1S(=O)(=O)N1CCCC(C(=O)NCC2CCCO2)C1 (centres unmarked)	4.64
COc1ccccc1CNS(=O)(=O)c1c(C)[nH]c(C)c1C(=O)N1CCCC1	11.9
COc1ccc(N(CC(=O)Nc2cccc(N(C)S(C)(=O)=O)c2)S(=O)(=O)c2ccccc2)cc1Cl	6.4
O=C(O)CC1(CC(=O)Nc2ccc3ccccc3c2)CCCCC1	13.2
CC[C@@H](C)[C@@H](C(=O)N1CCN(C(=O)OC(C)(C)C)CC1)n1cc(CCCCNC(=O)OC(C)(C)C)nn1	2.55
O=C(Nc1cccc2ccccc12)C12CC3CC(C1)CC(n1cnc([N+](=O)[O-])n1)(C3)C2	-24.5
NC(=S)NN=C1c2cc(S(=O)(=O)N3CCOCC3)ccc2-c2ccc(S(=O)(=O)N3CCOCC3)cc21	7.25
CCC(CC)NC(=O)c1cccc([N+](=O)[O-])c1C	0.221
Cc1ccc(C)c(NCC(O)c2ccccc2)c1 (centres unmarked)	7.53
Cn1c(SCC(=O)NCc2ccc3c(c2)OCO3)nnc1-c1cc2ccccc2cc1O	9.97
CC(NC(=O)CC12CC3CC(CC(C3)C1)C2)C(=O)O (centres unmarked)	11.1
Cc1ccc(NC(=O)N2CCCC(C(=O)O)C2)cc1 (centres unmarked)	11.7

Compound	hERG current change (%, negative = inhibition) at 1uM [%]
COc1ccc(C(=O)NNC(=O)COC(=O)c2sccc2C)cc1	0.581
COc1ccc(CC(=O)N/N=C(\C)c2cccnc2)cc1	-5.17
Cc1ccc(S(=O)(=O)CCC(=O)OC(C)C(=O)N2CCc3ccccc32)cc1 (centres unmarked)	7.11
O=C(NC(=S)Nc1cccc(Cl)c1N1CCCCC1)c1ccc2c(c1)OCCO2	17.3
CP(=O)(Nc1ccc(Cl)cc1)c1nc2c(s1)CCCC2 (centres unmarked)	11.6
O=C(N/N=C(\CC(=O)c1cccs1)C(F)(F)F)c1cccnc1	12.7
OCC[C@H]1C[C@H](O)[C@@H](O)[C@@]2(CCCO2)O1	17.6
CCOC(=O)C1=C(C)N(c2ccc(C)cc2)C(=O)/C1=C\c1ccc(O)c(OC)c1	9.25
O=C1CCC(=O)N1CCOP1(=O)COc2ccccc2OC1	20.3
Cc1cc(-c2n[nH]c(=S)n2/N=C/C(Br)=C/c2ccccc2)n[nH]1	11.3
CCSC(=Nc1ccccc1)C1=C(O)COC1=O	15.5
COc1ccccc1/C=C/C=N/NC(=O)c1ccc2nc[nH]c2c1	6.34
O=C(CCSc1nnc(-c2ccc(O)cc2)o1)N1CCOCC1	8.46
Cc1ccc(NC(=O)COC(=O)c2c[nH]c3ccccc23)cc1C	19.9
O=[N+]([O-])c1ccccc1Nc1ccccc1	9.58
Cc1ccc(CSc2nnc(-c3cccc(S(=O)(=O)N4CCOCC4)c3)n2C2CCCC2)cc1	0.995
O=C(O)CCSc1nnc(COc2ccc(Cl)cc2)n1-c1ccccc1	12.8
CN(C)/C=C/C(=O)c1cnc(-c2ccccn2)s1	9.79
COc1ccc(-c2nnc(C3CCN(S(=O)(=O)c4ccccc4)CC3)o2)cc1	2.56

Compound	hERG current change (%, negative = inhibition) at 1uM [%]
COc1ccc(C2=NS(=O)(=O)N(C)C(C(=O)N3CCN(C)CC3)=C2)cc1	7.21
O=C(CNC(=O)c1sc2ccccc2c1Cl)NCc1ccc(F)cc1	11.7
Cc1ccc(NNC(=O)C(O)(c2cccc(C(F)(F)F)c2)c2cccc(C(F)(F)F)c2)cc1	0.287
CN(C)N=O	25.1
Cc1cc(C(=O)CSc2nc3ccccc3o2)c(C)n1CC1CCCO1 (centres unmarked)	-0.54
COc1ccc2c(c1OC)C(=O)OC2Nc1nc(-c2cc3cc([N+](=O)[O-])ccc3oc2=O)cs1 (centres unmarked)	21.6
CC(=O)Nc1ccc(S(=O)(=O)NCc2csc(-c3cccnc3)n2)cc1	13.6
Cc1cc(C)n(-c2nc3ccccc3n3c(C)nnc23)n1	10.3
Cc1ccc(CNC(=O)C2CCC(=O)N(CC3CCCCC3)C2)o1 (centres unmarked)	22.7
Cc1nc(/N=C\c2ccc(N(C)C)cc2)sc1C	12.1
CNC(=O)Nc1ccc(Cn2cc(C(F)(F)F)ccc2=O)cc1	12.4
O=C(NCc1ccccn1)C(=O)NCC1OCCCN1S(=O)(=O)c1cc(F)ccc1F (centres unmarked)	8.02
CCCCN(C)CCN1C(=O)C2C(C(=O)Nc3cccc(OC)c3)C3C=CC2(O3)C1C(=O)NC1CCCCC1C (centres unmarked)	15.9
CC(=O)Nc1ccc(Nc2ncnc3c2cnn3-c2ccccc2)cc1	10.7
O=Cc1cn(-c2ccccc2)nc1-c1ccc2c(c1)OCCO2	5.48
COC(=O)c1ccccc1NC(=O)Nc1cccc(C)n1	7.16
O=C(Nc1ccc(C2CC2(Cl)Cl)cc1)c1cccc([N+](=O)[O-])c1 (centres unmarked)	13.9
COc1ccc(S(=O)(=O)NCCSC(C)(C)C)cc1	17.1
